# Source: PubChem BioAssay AID2675 (National Center for Advancing Translational Sciences (NCATS), 2010)
# Out of some 280,000 compounds screened, about 100 (0.036%) were called active. This list was built around the results that the source calls inconclusive (neither active nor inactive); the mix of calls is not that of the screen. Calls come from the whole dose curve; as a rule, active = well fitted inhibition curve with a large enough effect in the signal ratio, with a control signal flat (not every such curve was filed as active); inconclusive = small, poorly fitted or top-dose-only effect, or effect the other way, or a change in a side signal; inactive = no such curve, though single readings can be large or run the other way; the % refers to the signal ratio. Where the call is inconclusive, the potency comes from a doubtful curve fit. A note “side channel” means that the fit belongs to a control or component signal, not to the main read-out.
# Biological target: Muscleblind-like protein 1 (Homo sapiens) (UniProt Q9NR56)
# Sequence of UniProt Q9NR56 (Q9NR56 whole entry, looked up): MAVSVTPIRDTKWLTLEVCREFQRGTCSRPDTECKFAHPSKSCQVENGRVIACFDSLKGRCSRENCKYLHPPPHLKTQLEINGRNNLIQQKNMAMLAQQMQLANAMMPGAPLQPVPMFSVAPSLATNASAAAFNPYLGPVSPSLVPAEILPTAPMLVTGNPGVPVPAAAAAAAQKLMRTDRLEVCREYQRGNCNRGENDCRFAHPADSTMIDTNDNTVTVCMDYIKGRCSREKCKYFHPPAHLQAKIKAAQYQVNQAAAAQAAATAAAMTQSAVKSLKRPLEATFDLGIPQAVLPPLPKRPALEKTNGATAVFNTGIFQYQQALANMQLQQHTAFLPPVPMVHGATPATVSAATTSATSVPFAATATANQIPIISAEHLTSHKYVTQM
# Experiment: qHTS Assay for Inhibitors of MBNL1-poly(CUG) RNA binding
# Details: TR-FRET MBNL1-His/biotin-(CUG)12 binding, 665/545 ratio; series mostly up to 57.5 µM
# Outline: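 Ratiometric TR-FRET (665 over 545 nm, excitation 340 nm) tracks disruption of MBNL1-His/biotin-(CUG)12 complex after 60 min at room temperature, with compounds at 92 nM to 58 uM final.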
# Potency is the fitted concentration of half-maximal effect; tags give direction and shape of the fitted curve or compound fluorescence and quenching.
row,SMILES,Potency
1,CCOC(=O)Cc1csc(NC(=O)COc2ccccc2OCC)n1,inactive
2,CN(C)CCCN(C(=O)c1ccc2c(c1)CCCC2)c1nc2ccc(Cl)cc2s1,"inconclusive: 0.562 µM [quencher, side channel, partial curve]"
3,O=C(CCCCl)NC(=S)Nc1ccc(CN2CCOCC2)cc1,inactive
4,Cc1ccn(CC(=O)N2CCCC(C(=O)c3cccc4ccccc34)C2)n1 (stereo not given),"inconclusive: 17.8 µM [quencher, side channel, partial curve]"
5,N#CCNc1ccc([N+](=O)[O-])cc1C#N,"inconclusive: 15.8 µM [quencher, side channel, partial curve]"
6,COc1cc(NC(=O)c2ccc(C)cc2C)ccc1NC(=O)c1cc2ccccc2o1,"inconclusive: 6.31 µM [fluorescent, side channel, single point]"
7,NC(=O)CC(NC(=O)Cc1ccc(Cl)cc1)c1ccc(NC2CCN(Cc3ccccc3)CC2)c([N+](=O)[O-])c1 (stereo not given),"inconclusive: 3.55 µM [quencher, side channel, full curve]"
8,O=C(CN(C(=O)c1ccccc1Cl)N1C(=O)CCCC1=O)c1ccc(Cl)cc1,inactive
9,CC[C@@H](C)[C@H](NC(=O)Cc1c(C)c2c(cc(C)c3c(C)c(C)oc32)oc1=O)C(=O)O,"inconclusive: 35.5 µM [quencher, side channel, single point]"
10,CC(C)=NNc1nc(-c2ccc([N+](=O)[O-])cc2)cs1,"inconclusive: 8.91 µM [quencher, partial curve]"
11,COc1cc2c(C#N)c(N3CCCC3)nc(N)c2c(N)n1,"inconclusive: 39.8 µM [quencher, side channel, single point]"
12,CC(=O)c1cccc(NC(=O)c2csc(-n3nc(C)cc3C(F)(F)F)n2)c1,"inconclusive: 28.2 µM [fluorescent, side channel, partial curve]"
13,CC(=O)Oc1ccc2oc(=O)c3c(c2c1)CCCN3C(=O)CN1CCN(c2ncccn2)CC1,"inconclusive: 39.8 µM [quencher, single point]"
14,Cc1cccc(NC(=O)CN2C(=O)N/C(=C\c3cccn3-c3cccc(C(=O)O)c3)C2=O)c1,"inconclusive: 31.6 µM [quencher, side channel, single point]"
15,O=C(CSc1ccsc1[N+](=O)[O-])NCCc1ccccc1,"inconclusive: 7.08 µM [quencher, side channel, partial curve]"
16,O=[N+]([O-])c1ccc(NCc2ccc(Cl)cc2)nc1,"inconclusive: 28.2 µM [quencher, side channel, partial curve]"
17,Cc1c(C#N)c(O)n(C)c(=O)c1N=Nc1ccc(S(N)(=O)=O)cc1,"inconclusive: 3.98 µM [quencher, side channel, partial curve]"
18,COC(=O)c1c(N)n(-c2ccc(NC(C)=O)cc2)c2nc3ccccc3nc12,"inconclusive: 15.8 µM [quencher, side channel, partial curve]"
19,O=C(Oc1ccccc1)N1CCN(C(=O)c2ccco2)CC1,inactive
20,CC(C)(C)C(=O)C(Cc1ccccc1Cl)n1cncn1 (stereo not given),inactive

row,SMILES,Potency
1,COCCCn1c2nc3ccccc3nc2c2c(=O)n(-c3ccccc3OC)cnc21,"inconclusive: 2.51 µM [quencher, side channel, full curve]"
2,Cc1cc(NNC(=O)c2cccc(C(F)(F)F)c2)nc2c1c(C)nn2C,"inconclusive: 79.4 µM [inhibitor, single point]"
3,O=[N+]([O-])c1ccccc1CNC1CCCc2ccccc21 (stereo not given),"inconclusive: 25.1 µM [quencher, side channel, single point]"
4,CC(Sc1nnc(COc2ccc(Cl)cc2)n1-c1ccccc1)C(=O)O (stereo not given),inactive
5,O=C(Cn1c(=O)oc2cc(S(=O)(=O)N3CCCC3)ccc21)NCc1ccccn1,"inconclusive: 0.562 µM [fluorescent, side channel, full curve, poor fit]"
6,O=[N+]([O-])c1ccc(/C=N/Nc2nc(N3CCCCC3)nc(N3CCCCC3)n2)o1,"inconclusive: 8.91 µM [quencher, partial curve]"
7,CC(=O)Nc1ccc(NCc2cccs2)cc1,inactive
8,O=C(CCn1nc(-c2ccc(Cl)cc2)ccc1=O)N1CCOCC1,"inconclusive: 25.1 µM [quencher, side channel, partial curve]"
9,CN1C(=O)/C(=C/c2ccc(O)c([N+](=O)[O-])c2)N(C)C1=S,"inconclusive: 2.24 µM [quencher, side channel, full curve]"
10,CCc1cccc(NC(=O)c2snc3c(=O)[nH]cnc23)c1,"inconclusive: 31.6 µM [quencher, side channel, single point]"
11,CC(=O)Nc1nc2cccc([N+](=O)[O-])c2s1,"inconclusive: 3.98 µM [quencher, side channel, full curve]"
12,S=C(NCc1cccs1)Nc1ccc(Br)cc1Cl,inactive
13,O=C(NCCCN1CCOCC1)c1cccnc1SCc1ccccc1Cl,"inconclusive: 79.4 µM [inhibitor, single point]"
14,O=C1CCCC2=C1C(c1cccc(O)c1)C1=C(N2)c2ccccc2C1=O (stereo not given),"inconclusive: 1.26 µM [quencher, full curve]"
15,CCOC(=O)c1cnc(-n2nc(C)cc2C)nc1Nc1ccc(OC)cc1,"inconclusive: 0.112 µM [quencher, side channel, full curve, poor fit]"
16,COc1c[nH]n(C2CCCCC2)c(=O)c1=O,inactive
17,Cc1ccc2c(CN3CCCCC3C)cc(=O)oc2c1C (stereo not given),"inconclusive: 17.8 µM [quencher, side channel, single point]"
18,COc1ccc(/C=c2\s/c(=C\C(=O)C(C)(C)C)[nH]c2=O)cc1O,"inconclusive: 14.1 µM [quencher, partial curve]"
19,O=C(CNC(=O)c1ccco1)OCC(=O)c1cccc2ccccc12,"inconclusive: 39.8 µM [quencher, single point]"
20,O=C(O)c1cccc(NC(=O)c2ccc3c(c2)C(=O)N(c2cccc([N+](=O)[O-])c2)C3=O)c1,"inconclusive: 7.94 µM [quencher, side channel, partial curve]"

row,SMILES,Potency
1,O=C(NC1CCCC1)c1cc2nc(-c3ccco3)cc(C(F)(F)F)n2n1,"inconclusive: 15.8 µM [quencher, side channel, partial curve]"
2,Cc1nc(C(=O)Nc2ccccc2Cl)cc2c1[nH]c1ccccc12,"inconclusive: 39.8 µM [fluorescent, side channel, single point]"
3,Cc1cccc(C)c1-n1c(C)cc(/C=C2\C(=O)NN(c3ccccc3)C2=O)c1C,"inconclusive: 39.8 µM [quencher, side channel, single point]"
4,CN1CCN(c2ccccc2NC(=O)c2cccc([N+](=O)[O-])c2)CC1,"inconclusive: 10 µM [quencher, side channel, partial curve]"
5,O=C(CSc1cccc2cccnc12)Nc1cccc(S(=O)(=O)N2CCOCC2)c1,inactive
6,CCc1nc(C)ccc1OCC(=O)N1CCc2c([nH]c3ccccc23)C1c1ccccn1 (stereo not given),"inconclusive: 44.7 µM [quencher, side channel, partial curve, poor fit]"
7,O=C(NNS(=O)(=O)c1ccc(F)cc1F)C1Cc2c(ccc3ccccc23)O1 (stereo not given),inactive
8,CCCCNC(=S)NNC(=O)c1ccoc1C,inactive
9,CC(NCC(O)COCCC12CC3CC(CC(C3)C1)C2)c1ccccc1 (stereo not given),inactive
10,O=C1c2cccc3c(O)ccc(c23)C(=O)N1Cc1ccco1,"inconclusive: 14.1 µM [quencher, side channel, partial curve]"
11,Cc1cc(C)n2nc(SCC(=O)N3CCc4ccccc43)nc2n1,"inconclusive: 10 µM [fluorescent, side channel, full curve]"
12,CCOC(=O)C(C)n1nc(/C=C/c2ccccc2)ccc1=O (stereo not given),"inconclusive: 28.2 µM [quencher, side channel, single point]"
13,CCN(CC)CCNC(=O)c1cc2c(=O)n(C)c3ccccc3c2s1,"inconclusive: 28.2 µM [quencher, side channel, single point]"
14,COc1ccc(NC(=O)Nc2c(C)n(C)n(-c3ccccc3)c2=O)cc1,inactive
15,N#CC1=C(N)C2=C(N3CCCCC3)CCCC2C1(C#N)C#N (stereo not given),"inconclusive: 17.8 µM [quencher, side channel, partial curve]"
16,CC(=O)NC(Cc1cccc(C)c1)C(=O)NC1CCN(C(=O)c2ccc([N+](=O)[O-])cc2)CC1 (stereo not given),"inconclusive: 15.8 µM [quencher, side channel, partial curve, poor fit]"
17,Cc1cc(Nc2cccc(Cl)c2)nc(N2CCOCC2)n1,"inconclusive: 12.6 µM [quencher, side channel, partial curve]"
18,Cc1cc(C)n(CCC(=O)N/N=C/c2ccc(Cl)c([N+](=O)[O-])c2)n1,"inconclusive: 28.2 µM [quencher, side channel, partial curve]"
19,COc1cccc(C(=O)CSc2nnc(CNc3nc(-c4ccccc4)cs3)n2C)c1,"inconclusive: 12.6 µM [quencher, side channel, partial curve]"
20,COc1ccc(N2CCN(C(=O)c3ccccc3)CC2)c([N+](=O)[O-])c1,"inconclusive: 15.8 µM [quencher, side channel, partial curve]"
